Measurements taken from the supplement of paper PMC3334620.
The full ranking holds about 33,000 sequences; the median of “E-score (-0.5 to 0.5)” is about -0.056, and the highest 2% start at about 0.38. The list shows a part of the results.

The sequences below were run against Stb4 (UniProt P50104) (assay: PBM E-score (8-mer binding enrichment) (E-score (-0.5 to 0.5)); higher = stronger / more preferred TF binding; most listed sequences are background and not binding sites). Conditions: protein concentration: 200 nM; construct: GST-DNA-binding domain.
In short: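 For each ungapped eight-base word taken together with its reverse complement, the Universal PBM Analysis Suite assigned an E-score. Binding data came from GST-tagged yeast transcription factors, applied at about 100-200 nM, on universal all-10-mer Agilent arrays made double-stranded by primer extension. Fluorescent anti-GST marked bound protein, and scans were normalised with masliner.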

Sequence | PBM E-score
CGCGATAA | -0.135
AACAGGTC | -0.12
TGACAGAA | -0.205
ATGAAAAC | 0.118
ACTACACA | -0.0504
ACCTTGTC | -0.191
AGAGTTCC | 0.202
AGAGTCCG | 0.0517
ACTCCGTG | 0.0866
GATATACA | 0.116
ATTACGCA | 0.00056
CTATGCCC | -0.086
AAACTGGG | -0.067
GACCATCC | 0.039
AAACCTCT | 0.00543
CGAGGTCC | 0.276
ATTCCATG | 0.0553
CCCACTCC | -0.0203
AAGCCACA | -0.227
CATCTCCG | 0.287
GCACACCA | -0.0223
ATTCTTCC | 0.225
CCGCCATA | 0.177
ATGTCTGC | -0.074
GCACTATA | -0.184

Sequence | PBM E-score
AACGACCC | 0.146
TCGCGTCA | -0.13
CCCGGAGC | 0.32
GTCCATTA | -0.172
GAAGGGAC | -0.172
ATGTTTCA | -0.0946
CCGGGACC | 0.362
AAGACCAT | -0.0257
GAGATCAA | 0.0208
CTCACAAG | -0.31
CGTATATA | -0.178
CCTATAGA | -0.14
CCCCGAAG | 0.354
AAGCTGAT | 0.104
CACAGCAC | -0.255
ACAAGTAC | -0.0461
AATTTTCG | 0.0652
AGGACAAG | -0.276
GGCTACAC | 0.0332
GGATCAAA | 0.177
GACAGGTA | -0.0244
AGGGAGAG | -0.171
GGATCGCC | 0.0259
AAAGACGA | -0.235
CACGTCGA | -0.211

Sequence | PBM E-score
AGCACTAA | -0.0361
AGGTAGGC | -0.159
CATTGAGG | -0.312
CCTTGGTA | -0.055
AGTTCTCC | -0.0367
ATCCATGG | -0.0608
CTAAATCC | 0.205
GCTTGTAA | -0.109
CGGGATTC | 0.305
CTTTGGTC | 0.0244
AACGCTAA | -0.323
GGAACCGA | 0.343
CATTGACA | -0.128
AGTATATG | -0.0546
CGCCCGGC | 0.145
AGGGCGTG | -0.0353
CCCTCGTA | -0.114
ACACCCGA | 0.445
GGAGTACC | 0.00873
ATGAAATC | -0.191
AAGATTCC | 0.0966
GCTGAACC | 0.0509
CGTGTATC | 0.0759
CCCCCTAC | -0.261
CCAATGAA | -0.201

Sequence | PBM E-score
ATATAGTC | -0.00409
ACCACTGA | -0.244
CCCCTAAC | -0.134
CCCGGCGA | 0.215
CATCACAG | -0.229
CTATCTTC | -0.107
GCAAACGA | -0.0381
ACGCGAGA | -0.158
GAAGCGGA | 0.285
AGGACTAT | -0.161
GAGCAAAC | -0.0271
AACGCCAT | -0.115
CCAACGCG | -0.0591
ATGACCAT | -0.119
CTGCATGA | -0.246
AACGACGT | -0.166
CACGAAGG | -0.107
ATGACGGG | 0.167
ATTACATG | -0.0589
CATGGAAG | 0.00865
AAAGTAGC | 0.0242
AAGCAATC | -0.181
ACTCTGTA | -0.162
GTTCGAAA | -0.0541
AAGTTTTA | -0.075

Sequence | PBM E-score
ATAGGTTC | 0.00038
AACCCCCT | -0.408
TACAGTAA | -0.218
CTTATGAA | -0.114
CGTTATCA | -0.0712
AGCTTCAA | -0.181
TAGTGTCA | -0.101
AGAATCCT | -0.221
AAGACAGC | -0.171
ATTCACCC | 0.127
ATTTTAAC | 0.0635
TCCCGGAA | 0.407
GGAATTAC | 0.158
CGAGGCAC | 0.153
CCGTAATA | 0.127
CTCGTTTC | -0.0481
CGAGAGAA | 0.00907
TACGTTGA | -0.225
CGCTCTCA | -0.138
AATAGGAT | 0.113
GTGGGGTA | 0.132
GAGGTTGC | -0.0274
AGAACTCC | -0.153
TGTTCGAA | -0.0825
AACATGAA | -0.167

Sequence | PBM E-score
ACTCGTTG | -0.283
GAAATCGA | 0.1
CCCTTCGA | -0.0805
TTAAGAAA | -0.226
AAAAATAA | 0.029
CCCGGTCC | 0.289
CACGTGGG | -0.335
AGAAAATA | 0.0963
GCTCAAGC | -0.293
GGCCCATA | -0.0435
GGACGCTA | -0.0466
AAGCTTGC | -0.209
ACCGCGAC | -0.00545
CCGTAGAA | 0.018
AGGTAGAG | -0.197
CGGCAGTA | 0.3
ACAGCGAC | -0.325
ATTCCCGG | 0.372
AGAGAACC | -0.105
ACTTGGGC | -0.0574
CCTAAGAG | -0.194
TGGCCCCA | -0.198
ACCTGCCT | -0.0436
ATACGGAA | 0.36
CTAGATAG | -0.257

Sequence | PBM E-score
AGTCACGC | -0.162
CCGATCGA | 0.244
GATAGAAA | -0.026
TCCCAGGA | -0.284
GAATTCCA | 0.125
AAATCTTC | 0.1
AGGCAGAG | -0.295
GGTGGTCA | 0.0759
ACTCCACC | -0.177
ATCTTTTC | -0.0605
TGTGGAAA | -0.0202
AACTATTC | 0.0635
AGAGAACA | -0.00898
ACATAGCC | 0.0789
CCCGCTGA | 0.0217
ATTCCCGC | 0.295
CCCTATTC | 0.144
AGGAGCCG | 0.219
CACATTCC | 0.147
CCCATAGG | -0.153
GTATCAAA | -0.15
CCTTGGCA | -0.295
ACGGTTGC | -0.0857
GTTATCGA | 0.131
ACTTAAAA | 0.0509

Sequence | PBM E-score
ATGCGCGC | 0.104
CGGCTATC | 0.368
CTGGCCAA | -0.0932
AAGGGGCC | -0.0705
CACCTCGC | 0.0165
AGTTATTG | -0.173
CAAGCGTA | -0.284
CCCTGCAA | -0.122
CTTAACAC | -0.217
AAGCCCTA | -0.135
ACGGGAGT | 0.225
TCCACACA | -0.0692
AGATCGAC | -0.0199
AAATTCGA | -0.136
GGCATTGA | 0.0593
GCCAAGGC | -0.305
CAGTGTCG | 0.0321
CTAAAAAG | -0.0967
ATGCACTG | -0.144
AATATTTA | 0.0278
AGTTACAG | -0.235
ACACGGTC | -0.034
CACGATAG | -0.157
CCAAATGA | -0.0861
AGCGGAAT | 0.141

Sequence | PBM E-score
CGAACGCC | 0.0631
GATCATTA | 0.102
GCAGTCAA | -0.207
AGCTGGGC | -0.153
GTCGTAAA | 0.0948
AAAGTGTG | -0.194
AAAACTCC | 0.088
CCAACACC | -0.0103
ACCAAAGA | -0.00898
TAGCAATA | -0.0964
ATTGGGAG | -0.108
CACTACTC | 0.0355
AGAACAAT | 0.0308
CGTATAGC | 0.0237
ATCGGATC | 0.43
AGGCGTTA | -0.0936
CAATCCAA | -0.242
ACGTGTAC | -0.186
AGTATAAT | 0.0745
